In all, about 110,000 compounds were measured (“z-score”: median about -0.1, highest 2% from about 2 on). The list shows a part of the results.

For the test, the target named is Metabotropic glutamate receptor 8 (Rattus norvegicus) (UniProt P70579). The experiment in a line: mGluR8 Gi/Go-coupled signaling modulation – cell-based, rat, thallium flux, HTS, primary screen (AID 488969). The settings on record: HEK293 rat mGluR8, GIRK (G protein-gated inwardly rectifying potassium channel) thallium flux, FluoZin2; at 10 µM; stronger effect = higher value; submaximal glutamate (EC20) added with thallium.
Sequence of UniProt P70579 (P70579 whole entry, looked up): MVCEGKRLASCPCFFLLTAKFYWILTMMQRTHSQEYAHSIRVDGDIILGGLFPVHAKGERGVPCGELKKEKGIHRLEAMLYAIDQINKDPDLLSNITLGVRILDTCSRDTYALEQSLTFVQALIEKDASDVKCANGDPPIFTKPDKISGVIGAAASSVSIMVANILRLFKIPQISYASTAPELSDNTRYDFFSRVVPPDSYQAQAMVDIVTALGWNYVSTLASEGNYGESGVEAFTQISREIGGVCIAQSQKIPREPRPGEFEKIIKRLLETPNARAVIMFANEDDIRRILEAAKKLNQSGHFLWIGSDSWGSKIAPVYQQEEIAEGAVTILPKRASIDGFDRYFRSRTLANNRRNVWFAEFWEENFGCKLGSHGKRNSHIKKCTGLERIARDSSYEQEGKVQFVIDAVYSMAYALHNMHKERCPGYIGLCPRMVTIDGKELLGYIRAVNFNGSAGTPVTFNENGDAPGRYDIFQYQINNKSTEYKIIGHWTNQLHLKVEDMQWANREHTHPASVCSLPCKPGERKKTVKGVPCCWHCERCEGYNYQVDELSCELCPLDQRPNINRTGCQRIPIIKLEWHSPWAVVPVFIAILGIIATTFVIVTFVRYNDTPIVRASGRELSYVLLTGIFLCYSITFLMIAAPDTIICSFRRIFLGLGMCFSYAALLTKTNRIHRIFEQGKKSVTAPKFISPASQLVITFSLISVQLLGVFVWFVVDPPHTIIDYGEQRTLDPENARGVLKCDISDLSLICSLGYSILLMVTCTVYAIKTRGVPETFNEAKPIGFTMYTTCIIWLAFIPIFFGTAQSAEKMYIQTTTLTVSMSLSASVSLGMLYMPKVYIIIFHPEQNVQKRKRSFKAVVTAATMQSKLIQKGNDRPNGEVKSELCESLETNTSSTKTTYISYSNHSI
`CCCCN(CC)S(=O)(=O)N1CCC(C(=O)NCc2ccc(F)cc2)CC1` had a z-score of -1.05.

Turning to `Cc1ccc(-c2nc(CS(=O)CC(=O)NCCN3CCOCC3)c(C)o2)cc1` (centres undefined), the z-score is -0.152.

`COC(=O)c1cc2c(C)c(C)c3ccccn3c-2c1C(=O)OC` displayed a z-score of -0.43.

Compound `COc1ccc(NC(=O)c2cc(-c3cc(C)ccc3O)n[nH]2)cc1Cl` gave a z-score of 0.882.

The compound `CC1CCc2nc(NC(=O)CN3CCOCC3)sc2C1` (centres undefined) showed a z-score of -0.313.

In turn, `Cc1cc(C)cc(OCC(=O)NNC(=O)c2ccoc2C)c1` had a z-score of 0.366.

As to `Cc1ccc(C)n1Cc1ccc(C(=O)O)cc1`, the z-score came out at 0.41.

With `CCOC(=O)C(CC)(CCC(=O)O)c1csc(N)n1` (centres undefined), the z-score is -0.255.

The compound `CCn1c(SCC(=O)Nc2ccc(Cl)cc2)nc2nc3c(cc2c1=O)CCCC3` returned a z-score of 0.452.

On to `CCOC(=O)c1[nH]c(C)c(C(=O)Nc2ccccc2F)c1C`, for which the z-score is -0.186.

Consider `CC(C)n1c(-c2ccccc2F)n[nH]c1=S`, for which the z-score amounted to 0.0711.

The compound `C=CCn1c(=NC(=O)c2sc3ccccc3c2Cl)sc2cc(S(N)(=O)=O)ccc21` showed a z-score of -0.381.

The compound `COc1ccc(/C=C(/C(=O)c2ccc(Cl)cc2Cl)n2cncn2)cc1` displayed a z-score of 0.0171.

The compound `CN1C(=O)C(=O)N(CC(=O)N2CCc3ccccc32)C1=O` showed a z-score of -0.086.

`CCCCNC(=O)c1onc(CSc2ccc(F)c(F)c2)c1C(=O)O` came in with a z-score of -0.554.

`Cc1ccc(Nc2cc(C)nc3nnnn23)cc1` showed a z-score of 0.273.

For `Cc1ccc(OCC(=O)N2CCN(C(=O)c3cccnc3)CC2)cc1`, the z-score came to 0.109.

In turn, `CC(C)(C)C1=C(C#N)C(c2ccc3c(c2)OCO3)C(C#N)=C(N)O1` (centres undefined) returned a z-score of 0.0361.

On to `Cc1noc(NS(=O)(=O)c2ccc(NC(=O)CSc3n[nH]c(-c4ccccc4)n3)cc2)c1C`, for which the z-score was determined as 0.142.

As for `CCOC(=O)N1CCC(n2c(SCC(=O)N3CCC(C)CC3)nc3ccccc3c2=O)CC1`, the z-score is -0.612.

Regarding `CCNc1nc(NCC)n2c(SCC(=O)NCC3CCCCC3)nnc2n1`, the z-score worked out at 0.151.

`Cc1cc(C)c(C#N)c(N2CCN(Cc3ccccc3)CC2)n1`: the z-score was -0.124.

Take `Cc1ccc(C)c(-n2c(SCC(N)=O)nnc2-c2ccccn2)c1`: the z-score was -0.142.

The compound `COc1cc(/C=N/NC(=O)C(C)Nc2n[nH]c(=O)[nH]c2=O)ccc1O` (centres undefined) returned a z-score of 0.895.

`CN(c1ccc(C(=O)NCCSCc2ccc(Cl)cc2)cc1)S(=O)(=O)c1ccccc1` displayed a z-score of -0.308.

`Cc1ccnc(N2CCN(c3cc(C)c(C#N)c4nc5ccccc5n34)CC2)c1` registered a z-score of -0.662.

Consider `Cc1ccc(Nc2c([N+](=O)[O-])ccc3c2=NC2(CCCCC2)N=3)cc1`, for which the z-score is -0.514.

On to `CC(C)(C)N1C(=O)c2ccc(C(=O)Nc3ccc(-c4nc5ccccc5[nH]4)cc3)cc2C1=O`, for which the z-score is -0.0992.

`CCn1cc(C(=O)NCCCN(C)C)c(=O)c2cc(F)c(N3CCN(C)CC3)cc21` showed a z-score of -0.393.

In turn, `C=C(C)C1CC=C(C)/C(=N/NC(=O)CNc2ccc(C)cc2C)C1` (centres undefined) came in with a z-score of -0.284.

`O=C(COC(=O)Cc1ccc(Cl)cc1Cl)Nc1ccccc1OC(F)F` showed a z-score of 0.137.

`C=CCn1c(-c2sccc2C)n[nH]c1=S` had a z-score of -0.312.

Consider `CCc1ccc(N(C2C=CS(=O)(=O)C2)S(=O)(=O)c2ccccc2)cc1` (centres undefined), for which the z-score is -0.443.

In the case of `Cc1ccc(NC(=O)COC(=O)C2CC2C)c(S(=O)(=O)N2CCCCC2)c1` (centres undefined), the z-score was found to be 2.07.

Compound `CCCn1nc(CC(=O)OCC)c2ccccc2c1=O` showed a z-score of 0.73.

As for `COc1ccc(-n2cnnc2SCC(=O)NC2CCS(=O)(=O)C2)cc1` (centres undefined), the z-score was -0.346.

Take `c1ccc(CSc2nnc(-c3cccs3)n2Cc2ccco2)cc1`: the z-score was -2.3.

The compound `CC1Cc2ccccc2N1S(=O)(=O)c1cccc(C(=O)OCC(=O)NC2CCS(=O)(=O)C2)c1` (centres undefined) came in with a z-score of -0.631.

The compound `COc1cc(/C=N/NC(=O)c2cc(C34CC5CC(CC(C5)C3)C4)[nH]n2)ccc1O` returned a z-score of -0.235.

The compound `CCOC(=O)c1ccc(NC(=O)CSc2nnc(-c3cccs3)n2CC)cc1` displayed a z-score of -0.889.

In turn, `CCCNC(=O)C1CCN(S(=O)(=O)c2ccc(Br)cc2)CC1` showed a z-score of 0.249.

The compound `Cc1cccc(NC(=O)c2oc(=O)c3ccccc3c2-c2ccccc2)c1C` showed a z-score of -0.014.

As for `COc1ccccc1NC(=S)NC1CCCCCC1`, the z-score was -0.25.

`CCOC(=O)CCCCCN(Cc1ccccc1)S(=O)(=O)c1ccc([N+](=O)[O-])cc1` returned a z-score of -0.261.

In turn, `CCOC(=O)Cn1c2c(c(-c3ccccc3OC)cc1=O)CCCC2` registered a z-score of -0.0532.

The compound `O=[N+]([O-])c1cc(CN2CCCC2)c2cccnc2c1O` gave a z-score of -0.43.

`COc1ccc(O)c(C(=O)c2cc(C#N)c(=O)n(CCN3CCOCC3)c2)c1` showed a z-score of 0.984.

In the case of `O=C(COC(=O)C1=COCCO1)Nc1ccccc1Oc1ccccc1`, the z-score came to 0.0942.

The compound `CCOc1ccc2[nH]c(=O)c(CN(Cc3ccco3)C(CC)c3nnnn3Cc3ccccc3)cc2c1` (centres undefined) had a z-score of -0.673.

`O=C1c2ccncc2C(=O)N1Cc1cccc(Cl)c1`: the z-score was -0.194.

Consider `Cc1cc(-c2nc3ncccc3o2)ccc1NC(=O)CC(C)C`, for which the z-score stood at 0.87.

`COc1ccc(S(=O)(=O)Nc2ccc(NC(C)=O)cc2)cc1` showed a z-score of 0.624.

The compound `COc1ccc(S(=O)(=O)NC(CC(=O)N2CCc3ccccc32)c2ccco2)cc1` (centres undefined) yielded a z-score of -0.18.

The compound `O=C(CN1CCN(c2ccc(O)cc2)CC1)Nc1cc([N+](=O)[O-])ccc1Cl` had a z-score of -0.485.

Regarding `CCCCCCCNC(=O)COc1ccc2c(c1)C(=O)CC(C)(C)O2`, the z-score was -0.554.

As for `COc1ccc(Cl)cc1N(CC(=O)N/N=C/c1ccc(OC(C)C)cc1)S(=O)(=O)c1ccc(C)c([N+](=O)[O-])c1`, the z-score is -0.111.

`COc1ccc2nc(NC(=O)c3ccc(-c4cccc([N+](=O)[O-])c4)o3)sc2c1` yielded a z-score of 0.0933.

As to `O=C(Cn1cnc2sc(-c3ccccc3)cc2c1=O)N1CCOCC1`, the z-score is -0.224.

For `CCC(=O)c1ccc(OCC(O)CN(C)C2CCCCC2)cc1` (centres undefined), the z-score is 0.0787.

Regarding `O=C(Nc1ccccc1C(=O)O)c1cccc(NC(=O)c2ccc(Br)o2)c1`, the z-score was -1.87.

Regarding `O=C1C(c2ccccc2)C(c2ccccc2)NC(c2ccccc2)C1c1ccccc1` (centres undefined), the z-score came to 0.00927.

`COc1ccc(S(=O)(=O)N2CCCCC2)cc1` registered a z-score of 0.442.

`Cc1cc(N/N=C/c2ccccc2)nc(NCc2ccccc2)n1` displayed a z-score of -0.172.

Regarding `Cc1noc(NS(=O)(=O)c2ccc(N3C(=O)c4ccccc4C3=O)cc2)c1C`, the z-score was 0.00423.

As for `CS/C(=N\S(=O)(=O)c1cccs1)Nc1ccc(Br)cc1F`, the z-score is -0.63.

As to `CCCc1nc2c(nnn2Cc2ccccc2F)c(=O)[nH]1`, the z-score was -0.14.

For `COCCCNC(=O)Cn1ncc2ccsc2c1=O`, the z-score is -0.327.

As for `COC(=O)c1c(NC(=O)c2ccco2)sc(C(=O)N(C)C)c1C`, the z-score is -0.412.

Compound `c1ccc(-c2cnnc(N3CCOCC3)n2)cc1` came in with a z-score of 0.147.

Values taken from PubChem BioAssay AID488969 (Vanderbilt High Throughput Screening Facility, 2010).
